# In PubChem BioAssay AID2100 (National Center for Advancing Translational Sciences (NCATS), 2009):
# Hit rate of the full screen: of about 300,000 compounds, about 1,200 (0.4%) were called active. Inconclusive means that the source gave no clear call. Such entries were picked first, then a sample of the others. The call rests on the fitted dose curve; in most records, active means well fitted inhibition curve with a large enough effect; inconclusive means small, poorly fitted or top-dose-only effect, or another doubt; inactive means no such curve, though single readings can be large or run the other way. Potencies beside an inconclusive call are fits to weak or partial responses and may not hold up.
# Target: Lysosomal alpha-glucosidase (Homo sapiens) (UniProt P10253)
# Experiment: qHTS Assay for Inhibitors and Activators of Human alpha-Glucosidase Cleavage of Glycogen;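 on activity change, negative = inhibition: 0% = full enzyme reaction and -100% = no-enzyme basal signal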
# Settings: recombinant GAA, glycogen substrate, Amplex Red glucose oxidase fluorescence; activity change, negative = inhibition: at 76.4 µM (top of the series) unless noted
# Method in brief: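 qHTS, 1536-well; enzyme 4 nM final; cpd up to 77 uM; substrate bovine liver glycogen 30 ug; 50 mM citrate/phosphate pH 5.0, 0.01% Tween-20; 37 C, 40 min; Amplex Red detection 45 min RT; Hill fit → AC50.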
# Potency means the concentration at half of the fitted maximal effect.
Compound,Potency,"activity change, negative = inhibition"
O=C1C2C(C(=O)N1c1ccccc1)N1CCCN1C2c1ccccc1 (centres undefined),"inconclusive: 31.6 µM [inhibitor, single point]",
CCOc1ccc(NC(=S)N(Cc2ccc(N(C)C)cc2)Cc2ccco2)cc1,"inconclusive: 28 µM [inhibitor, partial curve]",
O=C(NC(=S)NC1CCSC1=O)c1ccc([N+](=O)[O-])cc1 (centres undefined),"inconclusive: 35.5 µM [inhibitor, single point]",
CCOc1ccc(CNS(=O)(=O)c2ccc3c(c2)CC(C)N3C(C)=O)cc1OC (centres undefined),"inconclusive: 11.2 µM [inhibitor, partial curve]",
Cn1c(SCC(=O)c2ccc(O)c(O)c2)nnc1-c1cccs1,"inconclusive: 50.1 µM [inhibitor, single point]",
CC1N(C)c2cc(NC(=O)c3ccco3)ccc2C1(C)C (centres undefined),"inconclusive: 25.1 µM [inhibitor, single point]",
C#CCOCCOCCOCCNc1nc(N2CCN(C(=O)[C@H](CCC(=O)O)n3cc(C(N)CO)nn3)CC2)nc(N2CCN(C(=O)[C@H](Cc3ccc(O)cc3)n3cc(C(N)CC(C)C)nn3)CC2)n1 (some centres undefined),inactive,
COc1cc(C2C3=C(CC(C)(C)CC3=O)N(C)C3=C2C(=O)CC(C)(C)C3)cc(Br)c1O,"inconclusive: 3.16 µM [inhibitor, partial curve]",
CCN(CC)c1ccc(N=C2C(=O)Nc3ccccc32)cc1,"inconclusive: 7.08 µM [inhibitor, single point]",
Cc1ccc(N/N=C/c2c(C)c(C#N)c(=O)n(C)c2O)cc1C,"inconclusive: 20 µM [inhibitor, partial curve]",
CN(C)c1c(N)c(=O)oc2ccccc12,"inconclusive: 3.98 µM [inhibitor, full curve]",
CCNC(=O)N1c2ccc(OC)cc2C(C)=CC1(C)C,"inconclusive: 44.7 µM [inhibitor, single point]",
O=C1NN(c2ccc(F)cc2)C(=O)/C1=C/c1cccs1,"inconclusive: 28.2 µM [inhibitor, single point]",
CCOC(=O)c1ccc(NC(=S)NNC(=O)c2cc(-c3cccnc3)nc3ccccc23)cc1,"inconclusive: 39.8 µM [inhibitor, single point]",
C/C(=N\NC(=S)Nc1ccc(C)c(C)c1)c1ccc(N2CCOCC2)cc1,"inconclusive: 28 µM [inhibitor, partial curve, poor fit]",
O=[N+]([O-])c1ccc(N(CCO)Cc2ccccc2)c([N+](=O)[O-])c1,active: 10 µM,
CCOc1cc(/C=N/NC(=O)c2cc(C)n(-c3ccc(F)cc3)c2C)ccc1O,"inconclusive: 3.55 µM [inhibitor, full curve]",
CCN(CCN(C)C)C(=O)c1ccc2c(c1NCCO)C(=O)c1ccccc1C2=O,inactive,
COc1ccc(NC2CS(=O)(=O)CC2NCc2ccccc2)cc1 (centres undefined),"inconclusive: 17.8 µM [inhibitor, partial curve]",
CCOc1cc(C2C3=C(CC(C)(C)CC3=O)Nc3n[nH]c(C)c32)ccc1O (centres undefined),"inconclusive: 20 µM [inhibitor, partial curve]",
COc1ccccc1/C=C/C=N/NC(=O)c1ccccn1,"inconclusive: 39.5 µM [inhibitor, single point]",
COCCNS(=O)(=O)c1ccc2c(c1)Cc1cc(S(=O)(=O)NCCOC)ccc1-2,inactive,
Cc1c(C(=O)NC(=S)Nc2ccccc2N2CCCC2)cccc1[N+](=O)[O-],"inconclusive: 14.1 µM [inhibitor, partial curve]",

Compound,Potency,"activity change, negative = inhibition"
COc1ccc(CCN2C(=O)CSC2c2ccc(OC)c(OC)c2)cc1OC (centres undefined),inactive,
CCOC(=O)c1c(NC(=O)CSc2nc(-c3ccc(OC)cc3)cc(C(F)(F)F)n2)sc(C)c1C,inactive,
O=C(CN1C(=O)C2C3C=CC(C3)C2C1=O)NCCN1CCCc2ccccc21 (centres undefined),"inconclusive: 3.52 µM [inhibitor, full curve]",
CCc1ccc(NC(=O)C2CCCN2S(=O)(=O)c2ccc3nc(-c4ccccc4)[nH]c3c2)cc1 (centres undefined),inactive,
N/C(=N\C(=S)Nc1ccccc1)c1ccccc1,"inconclusive: 39.8 µM [inhibitor, single point]",
COCCNc1c(-c2ccc(O)cc2)nc2ccc(Cl)cn12,active: 10 µM,
CN(C)S(=O)(=O)c1cccc(NC(=O)CNCc2ccccn2)c1,"inconclusive: 5.62 µM [inhibitor, full curve, poor fit]",
CCc1cc2ccc(C)cc2nc1SCC(=O)Nc1c[nH]c(=O)[nH]c1=O,,inconclusive: 36.2% [activator]
CC(=O)c1ccc(NC(=O)NNS(=O)(=O)c2ccc(F)cc2)cc1,"inconclusive: 35.5 µM [inhibitor, single point]",
C/C(CC(=O)NC1CCCCCC1)=N\NC(=O)c1cnccn1,"inconclusive: 4.43 µM [inhibitor, single point]",
Oc1cc2c(cc1C(c1ccc(Cl)c(Cl)c1)N1CCCC1)OCO2 (centres undefined),"inconclusive: 12.5 µM [inhibitor, partial curve]",
Cc1ccc(NC(=O)Nc2cn(C)c(=O)c3ccccc23)c(Cl)c1,"inconclusive: 7.94 µM [inhibitor, single point]",
COc1cc2c(cc1OC)C1(Nc3c-2c(Cc2ccccc2)nn3-c2ccccc2)C(=O)Nc2ccccc21 (centres undefined),"inconclusive: 3.14 µM [inhibitor, full curve, poor fit]",
Cc1ccc(NC(=O)Cn2cc(C(=O)c3ccco3)c3ccccc32)cc1C,inactive,
Clc1cccc(-c2nc3ccccn3c2Nc2ccc3c(c2)OCCO3)c1,active: 3.98 µM,
COc1ccc(Cl)cc1NC(=S)NNC(=O)c1cccs1,"inconclusive: 39.5 µM [inhibitor, single point]",
COc1ccc(N2C(=O)CC(Nc3ccc(N4CCOCC4)cc3)C2=O)c(OC)c1 (centres undefined),"inconclusive: 17.8 µM [inhibitor, partial curve]",
COc1ccc(Cn2c(-c3ccc(OC)cc3)n[nH]c2=S)cc1,"inconclusive: 17.6 µM [inhibitor, partial curve]",
c1cncc(-c2nc(N3CCOCC3)c3c4c(sc3n2)CCC4)c1,,inconclusive: 31.5% [activator]
N#Cc1cnc(NN)nc1,"inconclusive: 25.1 µM [inhibitor, partial curve]",
OCCNc1nc(Nc2ccccc2)nc(Nc2ccccc2)n1,inactive,
O=C(NNc1nc2ccccc2s1)C1CC1,"inconclusive: 14.1 µM [inhibitor, partial curve]",
CCOC(=O)c1c(C)c(C(=O)N2CCN(c3ccccc3)CC2)c(C)n1C,"inconclusive: 3.14 µM [inhibitor, partial curve]",

Compound,Potency,"activity change, negative = inhibition"
COc1ccc(Nc2ncc(C(=O)N3CCN(Cc4ccccc4)CC3)c3ccccc23)cc1,"inconclusive: 39.5 µM [inhibitor, single point]",
CN(NC(=S)Nc1ccc(OC(F)F)cc1)C(=S)Nc1ccc(OC(F)F)cc1,"inconclusive: 35.5 µM [inhibitor, single point]",
COc1ccc(-c2nnc(SCC(=O)Oc3c(C)cccc3C)o2)cc1OC,inactive,
C(=Nc1ccc(Nc2ccccc2)cc1)c1ccc2ccccc2c1,active: 17.8 µM,
CCOC(=O)C1CCCN(c2nc3ccccc3nc2C(C#N)C(=O)OCC)C1 (centres undefined),inactive,
COc1ccc(C2=NC(=O)NC2c2ccc(OC)cc2)cc1 (centres undefined),"inconclusive: 39.8 µM [inhibitor, single point]",
COc1cc(/C=C2\SC(c3ccc(C)cc3)=NC2=O)ccc1O,"inconclusive: 35.5 µM [inhibitor, single point]",
Fc1ccc(-c2nnc(NC3=NCCCCC3)o2)cc1,inactive,
CCOC(=O)CCCCC(=O)c1[nH]c(=O)[nH]c1CSc1nc(-c2ccccc2)c(C#N)c(=O)[nH]1,active: 35.5 µM,
Cc1c(NCc2cc(Cl)cc(Cl)c2O)c(=O)n(-c2ccccc2)n1C,active: 10 µM,
Cc1ccc(-n2c3nc(=O)n(C)c(=O)c-3cc3c(Cl)cccc32)c(C)c1,"inconclusive: 50.1 µM [inhibitor, partial curve]",
O=C(NC(=S)NNS(=O)(=O)c1ccccc1)c1ccc([N+](=O)[O-])cc1,"inconclusive: 31.6 µM [inhibitor, partial curve]",
FC(F)Oc1ccc(-c2csc(NNC3=NCCCCC3)n2)cc1,"inconclusive: 2.49 µM [inhibitor, partial curve]",
C(=C\c1ccccc1)/C=N/Nc1nc2ccccc2s1,"inconclusive: 8.91 µM [inhibitor, full curve]",
COc1ccc(OC)c(-c2cc(C(=O)Nc3cccc(Cl)c3C)no2)c1,inactive,
O=c1[nH]cc(O)c(=O)[nH]1,active: 5.01 µM,
Cc1ccc2nc(N/N=C/c3ccco3)cc(C)c2c1,"inconclusive: 31.6 µM [inhibitor, partial curve]",
Cc1cc(NC(=O)Nc2cccs2)no1,"inconclusive: 28 µM [inhibitor, single point]",
O=C(N/N=C/C1CC=CCC1)c1ccc(Cl)cc1O (centres undefined),"inconclusive: 10 µM [inhibitor, partial curve]",
O=C(NCCN1CCc2ccccc2C1)Nc1ccc([N+](=O)[O-])cc1,"inconclusive: 50.1 µM [activator, single point]",
O=C(NN=C(Cc1ccccc1)Cc1ccccc1)c1ccccc1O,active: 8.84 µM,
COc1cccc(/C=C2/C(=O)NN(c3ccc(C)c(C)c3)C2=O)c1,active: 31.6 µM,
CSc1cccc(-n2cc(-c3ccc4c(c3)OCO4)[nH]c2=O)c1,active: 35.2 µM,
